The list shows a part of the results.
Key:
Assay in all cases: glycan array binding signal (z-score within array); higher = stronger binding
Conditions in all cases: glycan notation: IUPAC condensed, linker removed; mutation: K176L
Neu5Ac(a2-8)Neu5Ac = biological target: Neu5Ac(a2-8)Neu5Ac
Summary of the method: (§1)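 Glycan array binding is given as a within-array Z-score, which can be read as non-binding when negative. The arrays, 3228 of them, came from the Consortium for Functional Glycomics database and were retained only where the protein sequence was available. Z-scores were averaged across arrays of the same protein sequence at different concentrations or buffers and across linkers.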

[1] = biological target: Neu5Ac(a2-8)Neu5Ac(a2-3)Gal(b1-4)Glc
Summary of the method: as §1

[2] = biological target: Neu5Ac(a2-8)Neu5Ac(a2-3)[GalNAc(b1-4)]Gal(b1-4)Glc
Summary of the method: as §1

[3] = biological target: Neu5Ac(a2-8)Neu5Ac(a2-8)Neu5Ac
Summary of the method: as §1

[4] = biological target: Neu5Ac(a2-8)Neu5Ac(a2-8)Neu5Ac(a2-3)Gal(b1-4)Glc
Summary of the method: as §1

[5] = biological target: Neu5Ac(a2-8)Neu5Ac(a2-8)Neu5Ac(a2-3)[GalNAc(b1-4)]Gal(b1-4)Glc
Summary of the method: as §1

[6] = biological target: Neu5Ac(a2-8)Neu5Ac(a2-8)Neu5Ac(a2-8)Neu5Ac(a2-3)[GalNAc(b1-4)]Gal(b1-4)Glc
Summary of the method: as §1

[7] = biological target: Neu5Ac(b2-6)Gal(b1-4)GlcNAc
Summary of the method: as §1

Neu5Ac(b2-6)GalNAc = biological target: Neu5Ac(b2-6)GalNAc
Summary of the method: as §1

[8] = biological target: Neu5Ac9Ac(a2-3)Gal(b1-3)GlcNAc
Summary of the method: as §1

[9] = biological target: Neu5Ac9Ac(a2-3)Gal(b1-4)GlcNAc
Summary of the method: as §1

[10] = biological target: Neu5Ac9Ac(a2-6)Gal(b1-4)GlcNAc
Summary of the method: as §1

[11] = biological target: Neu5Gc(a2-3)Gal(b1-3)GlcNAc
Summary of the method: as §1

[12] = biological target: Neu5Gc(a2-3)Gal(b1-3)[Fuc(a1-4)]GlcNAc
Summary of the method: as §1

Neu5Gc(a2-3)Gal(b1-4)Glc = biological target: Neu5Gc(a2-3)Gal(b1-4)Glc
Summary of the method: as §1

[13] = biological target: Neu5Gc(a2-3)Gal(b1-4)GlcNAc
Summary of the method: as §1

[14] = biological target: Neu5Gc(a2-3)Gal(b1-4)[Fuc(a1-3)]GlcNAc
Summary of the method: as §1

[15] = biological target: Neu5Gc(a2-6)Gal(b1-4)GlcNAc
Summary of the method: as §1

Neu5Gc(a2-6)GalNAc = biological target: Neu5Gc(a2-6)GalNAc
Summary of the method: as §1

[16] = biological target: Neu5Gc(b2-6)Gal(b1-4)GlcNAc
Summary of the method: as §1

B1: Gal 3 (Homo sapiens), P17931 (protein)
chain: MADNFSLHDALSGSGNPNPQGWPGAWGNQPAGAGGYPGASYPGAYPGQAPPGAYPGQAPPGAYHGAPGAYPGAPAPGVYPGPPSGPGAYPSSGQPSAPGAYPATGPYGAPAGPLIVPYNLPLPGGVVPRMLITILGTVKPNANILDFQRGNDVAFHFNPRFNENNRRVIVCNTLLDNNWGREERQSVFPFESGKPFKIQVLVEPDHFKVAVNDAHLLQYNHRVKKLNEISKLGISGDIDLTSASYTMI
**Q.** How did the “glycan array binding signal (z-score)” value (Neu5Ac(a2-8)Neu5Ac) turn out when B1 was run?
**A.** -0.27

**Q.** And the “glycan array binding signal (z-score)” value [1]?
**A.** -0.271

**Q.** What about the “glycan array binding signal (z-score)” value [2] of the same binder?
**A.** -0.261

**Q.** What about the “glycan array binding signal (z-score)” value [3] of the same binder?
**A.** -0.272

**Q.** And the “glycan array binding signal (z-score)” value [4]?
**A.** -0.265

**Q.** And the “glycan array binding signal (z-score)” value [5]?
**A.** -0.263

**Q.** And the “glycan array binding signal (z-score)” value [6]?
**A.** -0.269

**Q.** What about the “glycan array binding signal (z-score)” value [7] of the same binder?
**A.** -0.266

**Q.** And the “glycan array binding signal (z-score)” value (Neu5Ac(b2-6)GalNAc)?
**A.** -0.265

**Q.** And the “glycan array binding signal (z-score)” value [8]?
**A.** -0.274

**Q.** And the “glycan array binding signal (z-score)” value [9]?
**A.** -0.267

**Q.** What about the “glycan array binding signal (z-score)” value [10] of the same binder?
**A.** -0.266

**Q.** What about the “glycan array binding signal (z-score)” value [11] of the same binder?
**A.** -0.263

**Q.** What about the “glycan array binding signal (z-score)” value [12] of the same binder?
**A.** -0.272

**Q.** And the “glycan array binding signal (z-score)” value (Neu5Gc(a2-3)Gal(b1-4)Glc)?
**A.** -0.27

**Q.** What about the “glycan array binding signal (z-score)” value [13] of the same binder?
**A.** -0.27

**Q.** And the “glycan array binding signal (z-score)” value [14]?
**A.** -0.267

**Q.** And the “glycan array binding signal (z-score)” value [15]?
**A.** -0.27

**Q.** And the “glycan array binding signal (z-score)” value (Neu5Gc(a2-6)GalNAc)?
**A.** -0.265

**Q.** What about the “glycan array binding signal (z-score)” value [16] of the same binder?
**A.** -0.264
